These results are taken from PubChem BioAssay AID463173 (ICCB-Longwood Screening Facility, Harvard Medical School, 2010).

Hit rate of the full screen: of about 52,000 compounds, about 1,700 (3.3%) were called active. Rule as the data show it: active = survival mostly below about 52% (no sharp cut-off); inactive = mostly above about 56%. The list shows a part of the results.

This assay deals with Wild type. Briefly: growth inhibition of S. aureus wild type versus tarO mutant, primary screen, teichoic acid synthesis inhibitors, RN4220, OD600 (AID 463173). As to conditions: S. aureus RN4220 wild type/DeltatarO growth, OD600, 18 h, active compounds read low, screened at 18.75 µg/mL (by protocol).
As for `CCCn1c2ccccc2c2cnn(CC(=O)NCCc3ccc(OCC)cc3)c(=O)c21`, the survival is active: -6%. With `CCOc1ccc(NC(=O)CCNS(=O)(=O)c2ccc3c(c2)oc(=O)n3C)cc1` the figure was inactive: 101%; with `Cc1ccc(C(=O)NCCc2ccc(Cl)cc2)cc1-n1c(C)nc2cccnc21`, inactive: 71%. For `COc1cc(-c2noc(-c3ccc(NCc4ccccc4)c([N+](=O)[O-])c3)n2)cc(OC)c1OC`, the survival was inactive: 85%. For `COc1ccc(Cl)cc1NC(=O)c1sc(-n2nc(C)c(Cc3ccccc3)c2C)nc1C` the value was inactive: 84%. On to `Cc1ccc(C)c(Cn2c3ccccc3c3cnn(CC(=O)NCCC4=CCCCC4)c(=O)c32)c1`, for which the survival was inactive: 82%.

With `COc1ccc(NC(=O)Cn2nnc3sc4c(c3c2=O)CCC(C)C4)c(OC)c1` (stereo not drawn), the survival is inactive: 134%.

As for `COc1ccccc1CNC(=O)c1ccc2c(c1)N(Cc1cccc(C)c1)C(=O)c1ccccc1S2(=O)=O`, the survival is inactive: 90%. For `S=C(Nc1ccccc1)N1CCN(c2ccccc2)CC1` the value was inactive: 110%; for `CCn1c(=O)c2cc(C(=O)N(CCN(C)C)Cc3ccccc3)sc2c2ccccc21`, inactive: 75%. For `Cc1nnc(SCc2ccccc2)c2cc3sccc3n12` the value was inactive: 55%; for `CCOc1cc(C(=O)N2CC(=O)Nc3ccc(C)cc3C2c2ccccc2)cc(OCC)c1OCC` (stereo not drawn), inactive: 139%. With `COCCCNC(=O)CSC1=Nc2ccccc2C2=NC(CCC(=O)NCc3ccccc3OC)C(=O)N12` (stereo not drawn) the figure was inactive: 73%; with `COc1ccc(N2CCN(c3oc(/C=C/c4ccc(F)cc4)nc3C#N)CC2)cc1`, inactive: 84%. `CCc1ccc(CN(Cc2ccco2)C(=O)c2ccc(OC)cc2)cc1`: the survival is inactive: 73%. For `O=S(=O)(Nc1cccc(-c2ccc(N3CCCC3)nn2)c1)c1ccccc1C(F)(F)F` the value was inactive: 55%. For `O=C(C1CCCCC1)N1CCc2ccccc21` the value was inactive: 101%; for `COCC(C)NCc1cccc(Oc2ccccc2)c1` (stereo not drawn), inactive: 104%; for `CCc1ccc(CNC(=O)CCC(=O)N2Cc3cccc(OC)c3Oc3ncccc32)cc1`, inactive: 63%. On to `Cc1nnc(SCC(=O)n2c3ccccc3c3ccccc32)s1`, for which the survival is inactive: 105%. On to `O=C(Nc1cccc(C(=O)OCc2cc(=O)n3nc(C4CC4)sc3n2)c1)c1ccccc1`, for which the survival was active: 1%. As for `Cc1cc(C)cc(OC(C)C(=O)Nc2nonc2-c2ccc(Br)cc2)c1` (stereo not drawn), the survival is active: 17%. For `O=C(NCc1ccco1)C1CCN(C(=O)N2CCOc3ccccc32)CC1` the value was inactive: 85%; for `Nc1c(-c2nc(-c3cccs3)no2)nnn1-c1ccccc1Cl`, inactive: 94%; for `Cc1ccc(Cl)cc1N(C)C(=O)Cn1nc(Cc2cccnc2)c2ccccc2c1=O`, inactive: 85%. For `CCOc1cccc(CNC(=O)c2ccc(N3CCCC3)c(NC(=O)NCc3ccc(F)cc3)c2)c1` the value was inactive: 71%; for `CN(c1ccc(O)cc1)c1nc(-c2cccs2)cs1`, inactive: 32%. With `Cc1ccccc1NC(=O)CSc1nnc(C)c(=O)[nH]1` the figure was inactive: 89%; with `Cc1ccc(-n2nc(C)c(C(=O)NCCCN3CCN(c4ccc(F)cc4)CC3)c2-n2cccc2)cc1`, inactive: 101%. Take `Cc1ccccc1CS(=O)(=O)CC1Nc2ccc(C(=O)NCc3ccc(Cl)cc3)cc2NC1=O` (stereo not drawn): the survival was inactive: 71%. With `CCN(CC)CCOC(=O)c1ccc(NC(=O)Cn2ncc3c([nH]c4ccc(C)cc43)c2=O)cc1` the figure was inactive: 68%; with `COCCn1c(CNC(=O)c2ccc(C)cc2)nc2cccnc21`, inactive: 75%; with `COc1ccccc1-c1nc2c3c(-c4ccccc4)c(-c4ccccc4)oc3ncn2n1`, inactive: 89%. For `CCOc1ccc(-c2nonc2NC(=O)c2oc3c(C)c(C)ccc3c2C)cc1OCC` the value was inactive: 82%. For `Cc1ccc(C)c(Cn2c3ccccc3c3cnn(CC(=O)NCCCc4ccccc4)c(=O)c32)c1` the value was inactive: 137%; for `COc1ccc2c(c1)c(=O)c(S(=O)(=O)c1ccc(Cl)cc1)cn2C`, inactive: 86%; for `N#Cc1ccc(NC(=O)CNCCN2CCOCC2)cc1`, inactive: 99%.

Turning to `Cc1ccccc1CNC(=O)C1CCN(c2nnc(-n3c(C)ccc3C)s2)CC1`, the survival was inactive: 85%.

On to `COCCN=C1Sc2nc3c(C)cccc3cc2CN1Cc1ccco1`, for which the survival was inactive: 108%. For `COc1ccc(O)c(-c2cn[nH]c2-c2cccs2)c1` the value was inactive: 105%; for `CC(=O)Nc1c(C)nn(-c2ccccc2)c1N1CCC(C(=O)Nc2ccc(F)cc2Cl)CC1`, inactive: 60%. For `Cc1cccc(NC(=O)N2CCC(CN3CCC(C)CC3)CC2)c1C` the value was inactive: 105%. For `CCCc1[nH]nc2c1C1(CCN(C(C)=O)CC1)C(C#N)=C(N)O2` the value was inactive: 103%; for `Cc1ccc2c(c1)C(c1ccccc1)N(C(=O)c1ccccc1F)CC(=O)N2` (stereo not drawn), inactive: 86%; for `CCOC(=O)c1c(C)[nH]c(C)c1S(=O)(=O)N1CCCC(C(=O)Nc2ccccc2OCC)C1` (stereo not drawn), inactive: 129%. As to `CCc1cccc(CC)c1NC(=O)C(CC)n1nc(C)n2c(cc3cc(C)ccc32)c1=O` (stereo not drawn), the survival was inactive: 73%. As for `CCOC(=O)CSc1nnc(COc2cccc(C)c2)o1`, the survival is inactive: 98%.

`CCOC(=O)c1cccc(NC(=O)c2cc3cc4ccc(C)cc4nc3o2)c1`: the survival was inactive: 95%. In the case of `CCCn1c(SCc2nc(-c3cc(OC)ccc3OC)no2)nnc1-c1ccc(Cl)cc1`, the survival was inactive: 77%. For `CCc1cccc2cc(CN)c(=O)[nH]c12` the value was inactive: 108%.

On to `Cc1ccc(-n2ncc(C(=O)Nc3ccc4c(c3)OCCO4)c2C2CCN(C(=O)OC(C)(C)C)CC2)cc1`, for which the survival was inactive: 115%. With `Cc1ccccc1-c1noc(-c2cc3ccccc3oc2=O)n1`, the survival is inactive: 90%. For `COc1ccc(Br)cc1CNC(=O)CSc1cc(=O)n(C)c2ccccc12`, the survival is inactive: 81%.

With `CCN1CCN(c2csc3ccc(C)cc3c2=O)CC1`, the survival is inactive: 64%. With `CC1CCN(S(=O)(=O)c2ccc3c(c2)oc(=O)n3CC(=O)NC(C)c2ccccc2)CC1` (stereo not drawn) the figure was inactive: 144%; with `CCCc1ccc(OC(C)C(=O)Nc2sc3c(c2C(=O)OC)CCCCC3)cc1` (stereo not drawn), active: -2%; with `Cc1ccc(-c2nc(CS(=O)(=O)CC(=O)N3CCN(c4cccc(C)c4C)CC3)c(C)o2)cc1`, inactive: 129%. For the molecule `CCOC(=O)c1cnc2ccc(OC)cc2c1NCCc1ccc(OC)c(OC)c1`, the survival is inactive: 78%.
